# Reference: PubChem BioAssay (Tox21)
# Values joined by “and” are separate entries in the source; they are usually repeats but may differ in a detail not shown here. Identical values can stand only once. The inconclusive results got no clear call from the source; some entries with a clear call stand among them for comparison. Potencies of inconclusive entries are doubtful fits and often do not repeat. More than one record can exist for a structure, and the calls need not agree. Active and inactive are the calls of the source. Unless noted, the call rests on the fitted dose curve; in most records, active means well fitted curve in the direction sought with a large enough effect in the repeat runs; inconclusive means weak or mixed curves; inactive means no such curve, though single readings can be large; an effect the other way counts as inactive or inconclusive.
# Legend:
# [1] = qHTS assay for identifying genotoxic compounds that show differential cytotoxicity against isogenic chicken DT40 cell lines with known DNA damage response pathways - wild type cell line (AID 743012); conditions: DT40 wild type chicken cells viability, CellTiter-Glo, 40 h; activity change, negative = cytotoxicity: at 68.4 µM (top of the series) unless noted; further: nearly all actives have a fitted effect of over 60% in size; on activity change, negative = cytotoxicity: on the % scale 0 is the no-effect control and ±100 the full control effect
# Method in brief: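 Viability by ATP luminescence (CellTiter-Glo, 30 min RT) after 40 h compound treatment at 37 C/5% CO2, using 300 parental DNA repair-proficient DT40 cells per well.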
# [2] = qHTS assay for identifying genotoxic compounds that show differential cytotoxicity against isogenic chicken DT40 cell lines with known DNA damage response pathways - Rev3 mutant cell line (AID 743014); conditions: chicken DT40 Rev3-/- viability, CellTiter-Glo, 40 h; activity, negative = cytotoxicity: at 68.4 µM (top of the series); further: nearly all actives have a fitted effect of over 55% in size; on activity, negative = cytotoxicity: on the % scale 0 is the no-effect control and ±100 the full control effect
# [3] = qHTS assay to identify small molecule antagonists of the androgen receptor (AR) signaling pathway - cell viability counter screen (AID 743033; further: nearly all actives have a fitted effect of over 45% in size; on activity change, negative = cytotoxicity: on the % scale 0 is the no-effect control and ±100 the full control effect); conditions: AR-bla HEK293 viability, CellTiter-Glo luminescence, 16 h; activity change, negative = cytotoxicity: at 58.5 µM (top of the series)
# [4] = qHTS assay for identifying genotoxic compounds that show differential cytotoxicity against isogenic chicken DT40 cell lines with known DNA damage response pathways - Rad54/Ku70 mutant cell line (AID 743015); conditions: DT40 Rad54/Ku70 mutant viability, CellTiter-Glo, 40 h; activity change, negative = cytotoxicity: at 66.8 µM (top of the series); further: nearly all actives have a fitted effect of over 60% in size
# [5] = qHTS assay to identify small molecule antagonists of the thyroid receptor (TR) signaling pathway - cell viability counter screen (AID 743064); conditions: GH3.TRE-Luc viability, CellTiter-Fluor, 24 h; activity change, negative = cytotoxic: at 70.3 µM (top of the series) unless noted; further: nearly all actives have a fitted effect of over 50% in size; on activity change, negative = cytotoxic: on the % scale 0 is the no-effect control and ±100 the full control effect
# Method in brief: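 Viability of T3-stimulated (1 nM final) GH3.TRE-Luc cells is measured by CellTiter-Fluor fluorescence after 23.5 h compound exposure at 37 °C plus 30 min reagent incubation.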
# [6] = qHTS assay to identify small molecule antagonists of the androgen receptor (AR) signaling pathway using the MDA cell line - cell viability counter screen (AID 743041; further: nearly all actives have a fitted effect of over 45% in size); conditions: MDA-kb2 viability, CellTiter-Fluor, 16 h, cells co-treated with R1881 androgen agonist; viability change, negative = cytotoxic: at 70.3 µM (top of the series) unless noted
# Method in brief: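 Compound exposure lasted 16 h at 37C in MDA-kb2 AR-luc cells stimulated with R1881. Protease-based CellTiter-Fluor reagent was applied for the final 30 min and fluorescence measured.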
# [7] = molecular target: Androgen receptor (Homo sapiens) (UniProt P10275); test: qHTS assay to identify small molecule antagonists of the androgen receptor (AR) signaling pathway (AID 743035; active means well fitted inhibition curve with a large enough effect in the signal ratio in the repeat runs, not every such curve was filed as active; inconclusive means weak or mixed curves, or effect the other way; inactive means no such curve, though single readings can be large or run the other way; the % refers to the signal ratio); conditions: HEK293 AR-UAS-bla, R1881-stimulated, beta-lactamase FRET, 16 h; activity change, negative = inhibition: at 58.5 µM (top of the series) unless noted
# UniProt P10275, sequence (P10275 whole entry, looked up): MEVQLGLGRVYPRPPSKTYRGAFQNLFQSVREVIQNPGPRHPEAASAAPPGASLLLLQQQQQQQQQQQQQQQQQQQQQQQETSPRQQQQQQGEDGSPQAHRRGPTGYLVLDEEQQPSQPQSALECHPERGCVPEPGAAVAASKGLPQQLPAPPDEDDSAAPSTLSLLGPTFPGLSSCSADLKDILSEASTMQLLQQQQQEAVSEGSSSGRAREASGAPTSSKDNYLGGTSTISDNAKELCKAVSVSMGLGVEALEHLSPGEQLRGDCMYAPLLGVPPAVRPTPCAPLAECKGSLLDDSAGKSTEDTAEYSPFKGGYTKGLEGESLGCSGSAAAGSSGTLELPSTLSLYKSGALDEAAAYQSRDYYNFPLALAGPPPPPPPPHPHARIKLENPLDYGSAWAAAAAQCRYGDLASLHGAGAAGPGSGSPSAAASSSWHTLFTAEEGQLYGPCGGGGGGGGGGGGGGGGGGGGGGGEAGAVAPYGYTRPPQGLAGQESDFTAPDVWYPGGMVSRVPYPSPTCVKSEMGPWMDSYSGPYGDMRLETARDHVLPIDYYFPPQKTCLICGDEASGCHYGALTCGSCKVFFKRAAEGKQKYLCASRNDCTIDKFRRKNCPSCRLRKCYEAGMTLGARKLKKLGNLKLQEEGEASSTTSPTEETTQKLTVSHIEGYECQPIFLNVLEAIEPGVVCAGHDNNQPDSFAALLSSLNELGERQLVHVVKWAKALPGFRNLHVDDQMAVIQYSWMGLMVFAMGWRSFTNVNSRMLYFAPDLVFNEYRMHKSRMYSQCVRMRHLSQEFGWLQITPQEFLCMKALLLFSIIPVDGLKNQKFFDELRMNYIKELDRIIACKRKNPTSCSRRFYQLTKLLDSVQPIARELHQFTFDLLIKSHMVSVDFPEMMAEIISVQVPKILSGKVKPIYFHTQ
# Method in brief: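 Antagonist mode: AR-bla HEK293 cells co-treated with test compounds and agonist R1881 for 16 h at 37C, 5% CO2. Beta-lactamase activity read as FRET fluorescence after 2 h room-temperature substrate loading.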
# [8] = molecular target: Androgen receptor (Homo sapiens) (UniProt P10275); test: qHTS assay to identify small molecule agonists of the androgen receptor (AR) signaling pathway (AID 743036; active means well fitted activation curve with a large enough effect in the signal ratio in the repeat runs, with a control signal flat, not every such curve was filed as active; inconclusive means weak or mixed curves, or effect the other way; inactive means no such curve, though single readings can be large or run the other way; the % refers to the signal ratio); conditions: HEK293 AR-UAS-bla GripTite, beta-lactamase FRET ratio, 16 h; activation: at 62.4 µM (top of the series) unless noted
# Method in brief: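 Screening used 2,000 AR-bla HEK293 cells per well, treated 16 h at 37C with test compounds in DMSO alongside positive and DMSO-only controls; beta-lactamase activity was then read by LiveBLAzer B/G FRET fluorescence after 2 h at room temperature.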
# Potency means the concentration at half of the fitted maximal effect; tags describe the fitted curve by direction and shape or compound fluorescence and quenching.
smiles,measurement,setting,value
S=c1nc[nH]c2nc[nH]c12,Potency,[1],"inconclusive: 1.89 µM [rising, partial curve, poor fit]"
same,Potency,[2],inconclusive: 21.1 µM [cytotoxic] and active: 53.1 µM
same,Potency,[3],"inconclusive: 5.35 µM [cytotoxic, full curve] and active: 5.36 µM"
CCCCCCC(O)CCCCCCCCCCC(=O)O (stereo not drawn),Potency,[1],"inconclusive: 68.6 µM [cytotoxic, single point]"
same,Potency,[2],"inconclusive: 68.6 µM [cytotoxic, single point]"
same,Potency,[3],inactive
CN(C)CCOc1ccccc1Cc1ccccc1,Potency,[1],"inconclusive: 26.6 µM [cytotoxic, partial curve]"
same,Potency,[2],inactive
same,Potency,[4],"inconclusive: 33.5 µM [cytotoxic, single point]"
same,Potency,[5],"inconclusive: 10.6 µM [cytotoxic, full curve]"
Nc1nc2ccccc2[nH]1,Potency,[1],"inconclusive: 0.546 µM [rising, full curve, poor fit]"
same,Potency,[2],"inconclusive: 77.1 µM [cytotoxic, single point]"
same,Potency,[4],"inconclusive: 30.3 µM [cytotoxic, partial curve, poor fit]"
same,Potency,[5],inactive
O=C(OCc1ccccc1)c1ccc(O)cc1,Potency,[1],"inactive and inconclusive: 68.6 µM [cytotoxic, single point]"
same,Potency,[2],"inconclusive: 61.1 µM [cytotoxic, single point]"
same,Potency,[3],inactive
O=C1CC2(CCCC2)CC(=O)N1CCCCN1CCN(c2ncccn2)CC1,Potency,[1],active: 21.1 µM and active: 13.7 µM
same,Potency,[2],"inconclusive: 10.6 µM [cytotoxic, full curve] and active: 7.7 µM"
same,Potency,[3],active: 21.9 µM
same,Potency,[6],"inconclusive: 27.3 µM [cytotoxic, partial curve]"
same,Potency,[5],"inconclusive: 68.6 µM [cytotoxic, single point]"
CN1CCN(c2cc3c(cc2F)c(=O)c(C(=O)O)cn3-c2ccc(F)cc2)CC1,Potency,[1],active: 23.7 µM
same,Potency,[2],"inconclusive: 29.8 µM [cytotoxic, single point]"
same,Potency,[3],"inconclusive: 0.0038 µM [cytotoxic, full curve]"
same,Potency,[7],"inconclusive: 8.49 µM [rising, full curve, poor fit]"
same,Potency,[8],"inconclusive: 10.7 µM [fluorescent, partial curve, poor fit]"
CC1(C)C(=O)N(Br)C(=O)N1Br,Potency,[1],"inconclusive: 30.6 µM [cytotoxic, partial curve, poor fit]"
same,Potency,[2],"inconclusive: 30.6 µM [cytotoxic, full curve, poor fit]"
same,Potency,[4],"inconclusive: 13.7 µM [cytotoxic, full curve]"
same,Potency,[8],"inconclusive: 2.19 µM [activator, single point]"
CCOC(=O)[C@H](CCc1ccccc1)N[C@@H](C)C(=O)N(CC(=O)O)C1Cc2ccccc2C1,Potency,[1],active: 21.1 µM
same,Potency,[2],"inconclusive: 33.5 µM [cytotoxic, single point]"
same,Potency,[3],"inconclusive: 9.52 µM [cytotoxic, partial curve]"
same,Potency,[5],"inconclusive: 33.5 µM [cytotoxic, single point]"
Nc1ccn(C2CO[C@H](CO)O2)c(=O)n1 (stereo partly drawn),"activity change, negative = cytotoxicity",[1],inconclusive: -90.8%
same,"activity, negative = cytotoxicity",[2],inconclusive: -82.9%
same,"activity change, negative = cytotoxicity",[4],inconclusive: -93.1%
same,"activity change, negative = cytotoxic",[5],inconclusive: -43.2%
CN1CCCN=C1COC(=O)C(O)(c1ccccc1)C1CCCCC1 (stereo not drawn),Potency,[1],inconclusive: 26.6 µM [cytotoxic]
same,Potency,[2],"inconclusive: 29.8 µM [cytotoxic, partial curve, poor fit]"
same,Potency,[4],"inconclusive: 29.8 µM [cytotoxic, single point]"
same,Potency,[3],inconclusive: 0.0008 µM [cytotoxic]
same,Potency,[5],"inconclusive: 33.5 µM [cytotoxic, single point]"
CCN(CC)CCCN(c1ccccc1)C1Cc2ccccc2C1,Potency,[1],active: 0.531 µM
same,Potency,[2],active: 0.944 µM
same,Potency,[3],"inconclusive: 23.9 µM [cytotoxic, partial curve, poor fit]"
same,Potency,[6],active: 11.9 µM
same,Potency,[5],active: 2.98 µM
C=C(C)C(=O)OCC[N+](C)(C)C,Potency,[1],"inconclusive: 68.3 µM [cytotoxic, single point]"
same,Potency,[2],inconclusive: 68.3 µM [cytotoxic]
same,Potency,[4],active: 38.4 µM
same,Potency,[7],inactive
